# Experimental data: PubChem BioAssay AID1794842 (National Center for Advancing Translational Sciences (NCATS), 2023)
# Screen size: about 2,800 compounds; fewer than 10 were called active. Calls follow the shape of the dose curve; as a rule, active = well fitted curve in the direction sought with a large enough effect; inconclusive = small, poorly fitted or top-dose-only effect, or another doubt; inactive = no such curve, though single readings can be large or run the other way. This is one part of the list.
# Biological target: Metallo-beta-lactamase type 2 (Klebsiella pneumoniae) (UniProt C7C422)
# Test: qHTS to identify inhibitors of the New Delhi Metallo-beta-lactamase (NDM): Meropenem screen against the machine-based learning selections. Also: % of control where 0% means no effect.
# Conditions: Purified NDM-1, meropenem hydrolysis, absorbance 300 nm; at 38.4 µM (top of the series) unless noted
# How it was run: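 Hydrolysis by 2 nM NDM-1 was followed by absorbance after >30 min compound preincubation in HEPES pH 7.0 buffer with 1 uM Zn2SO4. For nitrocefin (16.7 uM, 15 min, 485 nm) and meropenem (50 uM, 30 min, 300 nm), each substrate ran on separate plates.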
# Sequence of UniProt C7C422 (C7C422 whole entry, looked up): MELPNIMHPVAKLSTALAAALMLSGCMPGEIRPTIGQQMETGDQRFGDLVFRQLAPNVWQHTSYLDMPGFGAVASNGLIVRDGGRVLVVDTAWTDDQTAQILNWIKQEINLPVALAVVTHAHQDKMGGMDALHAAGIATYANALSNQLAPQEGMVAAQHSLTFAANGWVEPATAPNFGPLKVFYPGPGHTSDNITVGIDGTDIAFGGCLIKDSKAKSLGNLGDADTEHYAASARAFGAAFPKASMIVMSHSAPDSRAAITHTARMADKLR
row,SMILES,"activity change, negative = inhibition"
1,NC(=O)Cc1c[nH]c2ncc(-c3cccc(OC(F)(F)F)c3)cc12,inactive: 4.52% [at 57.5 µM]
2,CC(C)C[C@@H](NC(=O)C1=C[C@@H](NC(=O)c2cnccn2)[C@@H](O)[C@H](O)C1)C(N)=O,inactive: 11% [at 57.5 µM]
3,O=C1N(C2CCOCC2)C[C@H]2CN(Cc3ccccc3F)CCN12,inactive: 0.445% [at 57.5 µM]
4,Cc1ccc2c(c1)SCC(=O)N2CC(=O)N(C)Cc1ccoc1,inactive: 0.897%
5,NC(=O)c1csc(S(=O)(=O)N2CCC(CO)(CN3CCCC3)CC2)c1,inactive: -2.29%
6,COc1ccc2c(c1)CN(C(=O)c1cccc(C#N)c1)CC[C@H]1COC(=O)N21,inactive: 1.45% [at 57.5 µM]
7,CC(C)C[C@@H](NC(=O)C1=C[C@@H](NC(=O)Cc2cccs2)[C@@H](O)[C@H](O)C1)C(N)=O,inactive: 2.09% [at 57.5 µM]
8,COc1ccc(CN[C@H]2C[C@H]3C(=O)NC[C@@H](CCC(=O)NCc4ccc(F)cc4)N3C2)cc1,inactive: 0.678%
9,CCN1CCCC2(CCN(C(=O)NCCc3ccccc3F)C2)C1=O (stereo unspecified),inactive: -0.232%
10,NC(=O)[C@@H]1CCCN1C(=O)c1ccc2oc(-c3cccc(F)c3)nc2c1,inactive: 15.5%
11,Cc1ccccc1[C@H]1C[C@@H](O)[C@@H](O)[C@@H]1NC(=O)c1c(-c2ccccc2)noc1C,inactive: 0.36% [at 57.5 µM]
12,COCCN(C)C[C@@H]1CN(C(=O)c2cc3ccccc3n(C)c2=O)C[C@@H]1CO,inactive: 5.34%
13,Cn1cc(C(NC(=O)c2cnc(N)nc2-c2ccccc2)C2CC(O)C2)cn1 (stereo unspecified),inactive: -0.327%
14,Cc1ccccc1C(CC(=O)NCc1cccnc1)c1ccccc1 (stereo unspecified),inactive: -0.11%
15,COc1ccc2[nH]cc(CCNC(=O)C3(Cc4cccnc4)CCCCC(=O)N3)c2c1 (stereo unspecified),inactive: -1.27%
16,CN(C)c1cccc(C(=O)N2CCCC(n3cc(-c4nc(C5CC5)no4)nn3)C2)c1 (stereo unspecified),inactive: 1.59%
17,Cc1cc(=O)n(CC(=O)Nc2cccc(C(F)(F)F)c2)c(N2CCN(c3ccccc3)CC2)n1,inactive: 0.0824%
18,CNC(=O)C1(N2CCC[C@H]2C(=O)N2CC[C@@H](O)C2)CCCCC1,inactive: 39.6% [at 57.5 µM]
19,CC(=O)Nc1cccc(-c2csc(CN3CCCC(C)(NC(C)=O)C3)c2)c1 (stereo unspecified),inactive: 0.136% [at 57.5 µM]
20,Cc1cc(=O)n(CC(=O)Nc2ccccc2C)c(-c2ccc(F)cc2)n1,inactive: 2.37%
21,Cc1nn(Cc2ccccc2)c(C)c1[C@@H]1C=C[C@@H](NC(=O)CCCC(=O)O)C1,inactive: 0.689% [at 57.5 µM]
